Measurements as given in PubChem BioAssay (NCI).
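96-well plates; 48 h exposure; 5 concentrations. Endpoints by linear interpolation between flanking doses. Not reached: highest tested concentration assigned. GI50 = concentration required for 50% inhibition of growth.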 Not every entry of the source has a single result; some have several. The other results are left out here. An entry can have further records. Records of one sample usually come from different ranges of test concentrations, not given here; some values may only mark the edge of a range.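 TGI: concentration producing complete growth inhibition.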

Assays:
Test in all cases: NCI anticancer screen, dose series, 48 h
KM12 colon = test system: KM12 colon
HCT-15 colon = test system: HCT-15 colon
HT29 colon = test system: HT29 colon
OVCAR-3 ovarian = test system: OVCAR-3 ovarian
SF-539 CNS = test system: SF-539 CNS
MCF7 breast = test system: MCF7 breast
SF-268 CNS = test system: SF-268 CNS
U251 CNS = test system: U251 CNS
SK-OV-3 ovarian = test system: SK-OV-3 ovarian
OVCAR-4 ovarian = test system: OVCAR-4 ovarian
SNB-78 CNS = test system: SNB-78 CNS
NCI-H522 lung = test system: NCI-H522 lung
HCT-116 colon = test system: HCT-116 colon
CCRF-CEM leukemia = test system: CCRF-CEM leukemia
DMS 273 small cell lung = test system: DMS 273 small cell lung
MDA-MB-231 breast = test system: MDA-MB-231 breast
PC-3 prostate = test system: PC-3 prostate
IGROV1 ovarian = test system: IGROV1 ovarian
LXFL 529 NSCLC = test system: LXFL 529 NSCLC

For `CC1/C=C/C=C/C=C/C=C/C=C/C=C/C=C/C(O[C@@H]2O[C@H](C)[C@H](O)[C@@H](O)[C@@H]2N)CC(O)C(C(=O)O)C(O)CC(=O)CC(O)CC(O)CC(O)CC(=O)CCCC(=O)CC(=O)OC1C(C)CC(C)C(O)CC(=O)c1ccc(N)cc1` (stereo partly specified), the TGI (KM12 colon) was 154 nM and 1.88 µM, the GI50 (HCT-15 colon) was 65.7 nM and 1.12 µM and the TGI (HCT-15 colon) was 142 nM and 2.36 µM. The TGI (HT29 colon) was 105 nM and 1.16 µM, the TGI (OVCAR-3 ovarian) was 123 nM and 1.28 µM and the TGI (SF-539 CNS) was 125 nM and 1.74 µM.

In the case of `CC[C@H]1CN2CCc3cc(OC)c(OC)cc3[C@@H]2C[C@@H]1C[C@H]1NCCc2cc(O)c(OC)cc21`, the TGI (MCF7 breast) is reported as 80.7 nM, > 100 µM [1 test] and 66.4 nM [mean of 4 tests], the TGI (SF-268 CNS) is reported as 83.4 nM, 168 nM [mean of 2 tests] and 957 nM [mean of 3 tests] and the TGI (KM12 colon) is reported as 43.3 nM [1 test] and 71.2 nM [mean of 2 tests] and 688 nM [mean of 4 tests]. The TGI (U251 CNS) was 76.7 nM, < 18 nM [mean of 2 tests] and 241 nM [mean of 4 tests], the TGI (SK-OV-3 ovarian) was 68.4 nM [mean of 2 tests] and 976 nM [mean of 3 tests] and the TGI (OVCAR-4 ovarian) was 22.5 nM [mean of 2 tests] and 800 nM [mean of 3 tests]. The TGI (SNB-78 CNS) was 74.8 nM, 3.78 µM [1 test] and 1.07 µM [mean of 4 tests], the TGI (NCI-H522 lung) was 11.2 nM [mean of 2 tests] and 160 nM [mean of 5 tests] and the TGI (HCT-116 colon) was 55.2 nM and 1.94 µM. The TGI (CCRF-CEM leukemia) was 73 nM and 5.09 µM, the TGI (DMS 273 small cell lung) was 52.4 nM, 10.4 nM [1 test] and 246 nM [mean of 2 tests] and the TGI (MDA-MB-231 breast) was 31.1 nM and > 100 µM. For the same compound, the TGI (PC-3 prostate) was 83.1 nM and > 100 µM, the TGI (IGROV1 ovarian) was 85.3 nM, 72.4 nM [mean of 2 tests] and 820 nM [mean of 3 tests] and the TGI (LXFL 529 NSCLC) was 46.3 nM and 874 nM.
